According to PMC6212790:
This is one part of the list. At the low end of the ranking the order means little.

molecular target: T1, GST-Rok (full length) (UniProt O34857); test: protein binding microarray; conditions: Rok is a gene silencer of Bacillus subtilis; high values mean tight binding; most listed sequences are background and not binding sites; double strand, one strand shown;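 also: rank score from −0.5 (least bound) to 0.5 (best bound)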
T1 sequence: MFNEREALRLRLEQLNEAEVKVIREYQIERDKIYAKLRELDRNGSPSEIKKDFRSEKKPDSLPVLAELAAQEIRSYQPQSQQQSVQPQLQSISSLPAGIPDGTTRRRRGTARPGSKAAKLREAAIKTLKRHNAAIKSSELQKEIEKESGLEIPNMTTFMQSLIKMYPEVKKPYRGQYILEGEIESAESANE

Row | Sequence | binding signal [E-score]
1 | CATGCACC | -0.113
2 | TATTCGCA | 0.195
3 | AGTGACAT | 0.101
4 | TACTAAAA | 0.434
5 | AGCCCCGC | -0.338
6 | CATCTTCA | 0.0379
7 | AGCGAGAA | 0.0389
8 | AGCTGTGC | -0.176
9 | CTGGTGAC | -0.165
10 | CCATCGAA | -0.0481
11 | ACTTTAAG | -0.108
12 | ACTCTTGC | 0.112
13 | CAGGAAAG | -0.131
14 | ATTGAGTA | 0.241
15 | ATTCCTAG | 0.0654
16 | ACAGCTCA | -0.0199
17 | AAGAGTGT | 0.0141
18 | GATTTTCA | -0.0835
19 | CAGCGCAC | -0.0964
20 | GTCCGTCA | -0.0558
21 | ACCGATTG | -0.0493
22 | ACTCAAGT | 0.0198
23 | CCAGAAGG | -0.262
24 | CTGGCAGA | -0.0653
25 | AGACGGTG | -0.0582

Row | Sequence | binding signal [E-score]
26 | AGAGCACG | -0.225
27 | AGCAACAG | 0.0925
28 | GAGTTATA | 0.222
29 | TCTAGAGA | -0.0342
30 | ATATCTAC | 0.393
31 | CGGCCGTC | -0.256
32 | AGCGGAAG | -0.039
33 | AATACAGA | 0.0991
34 | AACATACA | 0.355
35 | AGAGTAAG | 0.19
36 | CGACAACA | 0.0732
37 | ACGTCACA | -0.0872
38 | ACTGTATA | 0.314
39 | CCTCTAAG | -0.231
40 | TAAGAGTA | 0.209
41 | GAAAGGCA | -0.2
42 | ACAACAAC | -0.0116
43 | CGACCGTA | -0.0287
44 | AAACGGGC | -0.108
45 | CTCGATCA | -0.142
46 | AGCCTAAG | -0.0976
47 | CGGTCATA | 0.117
48 | CCGCAACC | -0.0987
49 | AAAATAGG | 0.158
50 | GGGGGTGA | -0.338

Row | Sequence | binding signal [E-score]
51 | AAATCGAC | 0.0627
52 | AAAAACGC | 0.0552
53 | ACAGCGCG | -0.0229
54 | TGCGACCA | -0.0775
55 | AGTGAGAA | 0.0651
56 | AGATATTG | 0.196
57 | GGGTAATA | 0.234
58 | ATATCCAC | 0.161
59 | ATTTCTTG | -0.159
60 | CGATCGCA | -0.0648
61 | ACTCCGCG | -0.031
62 | CTGGCGAC | -0.187
63 | AGTGGAGC | -0.164
64 | CCAAACAA | -0.185
65 | TTCTAAAA | 0.0214
66 | ACTCCCGG | -0.257
67 | AATCTGCA | -0.0122
68 | AGATCGCA | -0.164
69 | AACAGCAC | -0.322
70 | AGCTACTC | 0.0629
71 | GAATTTCA | 0.0434
72 | CTGCGGCC | -0.43
73 | AGGCAGTA | 0.206
74 | AAGTACGT | 0.254
75 | ACGTCTAC | -0.0183

Row | Sequence | binding signal [E-score]
76 | CCGACGGA | -0.223
77 | AAGCAATA | 0.178
78 | CAAGCCTA | -0.112
79 | CGCCCCGA | -0.277
80 | GGTTTGCA | 0.106
81 | TACGTGGA | -0.116
82 | TTCAACAA | 0.0149
83 | GGATAGAA | 0.171
84 | GACTAGAA | 0.15
85 | CCGATCAA | -0.0532
86 | AAAGGTTC | -0.0954
87 | GGTAAGTA | 0.19
88 | TAGGCCCA | -0.208
89 | AGCAATTA | 0.298
90 | ACAATTGA | 0.124
91 | AGTCTCTG | -0.0485
92 | AAGACAAG | -0.0341
93 | ACCTACCC | -0.0185
94 | TATCCTAA | 0.187
95 | AACTTAGG | -0.0144
96 | ACACAGTC | 0.00717
97 | GCACCTAA | -0.0517
98 | CAGTAGAC | -0.15
99 | ACCTCGCT | -0.161
100 | AGTGTTAC | 0.173

Row | Sequence | binding signal [E-score]
101 | CCCAGTGC | -0.292
102 | AGCCAAGA | -0.126
103 | GGCGTTAA | -0.174
104 | AGCCCCCT | -0.5
105 | ATGGGTTA | 0.18
106 | CAGCGCCC | -0.336
107 | CCGGACGC | -0.271
108 | CCAAATCG | -0.0877
109 | CCCCTCCC | -0.375
110 | GAGATCAC | -0.09
111 | CGGCGTGC | -0.274
112 | GTCTCCCA | -0.324
113 | AACTAAGT | 0.232
114 | ATCGAAAT | 0.357
115 | CTTTGGTA | 0.1
116 | CGTTTATC | 0.177
117 | AAGCAGAC | -0.0465
118 | CCCCGACA | -0.208
119 | CCGGCAGG | -0.295
120 | CATAGCAG | 0.0382
121 | AATGAAGG | -0.0948
122 | ACATGATG | 0.000516
123 | CGCTCAAA | -0.0792
124 | AAACCACT | -0.00242
125 | GTTCGAGA | 0.0784

Row | Sequence | binding signal [E-score]
126 | CCTAGAAC | -0.007
127 | CGGGGGAA | -0.378
128 | GAGGTAGC | -0.0251
129 | GCACAACC | -0.0983
130 | AACGAGCC | -0.116
131 | ATCAACTA | 0.322
132 | CAGTTTAG | 0.106
133 | AGAGTTGG | -0.0223
134 | CGAACGTC | -0.21
135 | CTGCACCA | -0.0718
136 | ATAGTGTC | 0.113
137 | GCACGACA | -0.0532
138 | GTTACGGA | -0.133
139 | GTAACCAC | 0.127
140 | ACCGGAGA | 0.0649
141 | CCGGTACA | -0.0865
142 | CCTTAGTC | -0.116
143 | AGTGGCGA | 0.0254
144 | ATTAATGG | 0.0209
145 | CGACGGGA | -0.275
146 | CGAACGCG | -0.0528
147 | AATTCTGC | 0.157
148 | GAAAACTC | -0.114
149 | ACCCCTTA | -0.233
150 | GTCATGGA | 0.0816

Row | Sequence | binding signal [E-score]
151 | AGCTGAAT | -0.113
152 | CGCCGGAC | -0.314
153 | ACCGAACG | -0.154
154 | CAGAGACC | -0.235
155 | TGGTACAA | 0.244
156 | CTAGCTTA | 0.26
157 | CACCCCAA | -0.151
158 | GGTTCAAC | -0.214
159 | ACGTTCAC | 0.0408
160 | CCGTTCCC | -0.3
161 | AAGGTTGC | -0.215
162 | TGCAGGAA | 0.0814
163 | CTCATCTA | 0.0678
164 | CCTCGCCC | -0.239
165 | CGCCTCAA | -0.22
166 | GCAGCTGA | -0.238
167 | AATATCTG | 0.268
168 | CCGGCTAA | -0.121
169 | TGGGCGAA | -0.103
170 | ACAAATGG | 0.155
171 | CTGTGTAA | 0.129
172 | CACGCTCA | -0.099
